Data from PubChem BioAssay AID504339 (National Center for Advancing Translational Sciences (NCATS), 2011).
Among all 390,000 compounds or so, about 17,000 (4.4%) were called active. This list was built around the results that the source calls inconclusive (neither active nor inactive); the mix of calls is not that of the screen. Calls come from the whole dose curve; as a rule, active = well fitted inhibition curve with a large enough effect; inconclusive = small, poorly fitted or top-dose-only effect; inactive = no such curve, though single readings can be large or run the other way. Where the call is inconclusive, the potency comes from a doubtful curve fit.

target: Lysine-specific demethylase 4A (Homo sapiens) (UniProt O75164); assay: qHTS Assay for Inhibitors of JMJD2A-Tudor Domain; settings: AlphaScreen JMJD2A-Tudor / H3K4me3 peptide binding; activity change, negative = inhibition: at 114 µM (top of the series); note: nearly all actives have a fitted effect of over 50% in size
UniProt O75164, sequence (O75164 whole entry, looked up, the tested form may be a part): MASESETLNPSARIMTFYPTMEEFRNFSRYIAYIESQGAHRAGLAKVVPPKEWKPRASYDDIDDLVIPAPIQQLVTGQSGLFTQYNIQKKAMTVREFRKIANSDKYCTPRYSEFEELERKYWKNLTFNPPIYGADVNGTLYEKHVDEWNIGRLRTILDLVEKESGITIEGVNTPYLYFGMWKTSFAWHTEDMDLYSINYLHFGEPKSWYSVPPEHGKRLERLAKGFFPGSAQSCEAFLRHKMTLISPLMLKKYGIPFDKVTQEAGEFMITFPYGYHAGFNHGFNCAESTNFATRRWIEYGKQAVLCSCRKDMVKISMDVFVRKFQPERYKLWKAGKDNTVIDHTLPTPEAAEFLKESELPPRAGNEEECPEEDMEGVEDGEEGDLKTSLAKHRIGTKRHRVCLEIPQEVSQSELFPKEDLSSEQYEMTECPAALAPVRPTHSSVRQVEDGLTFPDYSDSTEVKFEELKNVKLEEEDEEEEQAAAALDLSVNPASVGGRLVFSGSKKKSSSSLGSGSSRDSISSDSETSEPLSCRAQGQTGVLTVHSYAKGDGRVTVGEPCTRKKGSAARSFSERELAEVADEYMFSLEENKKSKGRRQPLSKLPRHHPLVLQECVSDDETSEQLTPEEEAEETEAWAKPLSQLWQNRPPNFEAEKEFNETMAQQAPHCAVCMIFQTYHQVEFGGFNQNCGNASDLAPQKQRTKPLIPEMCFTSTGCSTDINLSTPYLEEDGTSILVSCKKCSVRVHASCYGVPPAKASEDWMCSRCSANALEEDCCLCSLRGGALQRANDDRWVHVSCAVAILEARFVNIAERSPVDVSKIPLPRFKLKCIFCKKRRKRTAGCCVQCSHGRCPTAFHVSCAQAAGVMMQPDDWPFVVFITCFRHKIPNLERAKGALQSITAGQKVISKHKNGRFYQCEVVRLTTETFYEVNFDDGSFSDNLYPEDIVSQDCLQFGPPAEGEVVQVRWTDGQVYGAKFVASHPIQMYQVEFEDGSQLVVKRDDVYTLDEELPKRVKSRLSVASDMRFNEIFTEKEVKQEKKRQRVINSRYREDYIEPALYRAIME
% is set by controls: 0 for no effect and ±100 for the full control effect; potency is the fitted concentration of half-maximal effect; tags give direction and shape of the fitted curve.

Potency, inactive:
COC(=O)c1ccc(OC(=O)C2CC(=O)N(c3cccc(C)c3)C2)cc1 (stereo unspecified)
COc1ccc(S(N)(=O)=O)cc1C(=O)NCCCN1CCN(c2ccccc2OC)CC1
Cc1cc(CC(=O)O)c(C)cc1CC(=O)O
Cc1nc2nc(SCC(N)=O)[nH]c2cc1Br
Cc1ccc(C(=O)N2CCN(S(=O)(=O)c3ccccc3[N+](=O)[O-])CC2)o1
Cc1cc(C)n2nc(SCC(=O)Nc3cccc(C(F)(F)F)c3)nc2n1
COCCN(C(=O)CSc1nc2ccc(OC)cc2[nH]1)c1c(N)n(Cc2ccccc2)c(=O)[nH]c1=O
CCCCN(Cc1cc2cc(OC)ccc2[nH]c1=O)C(=O)c1ccccn1
C/C(=N\NC(=O)c1ccncc1)c1cc2ccccc2o1
CN(CC(=O)Nc1cccc(F)c1)C(=O)CCCc1c[nH]c2ccccc12
COc1ccc(Cl)cc1NC(=O)CSC1=Nc2ccccc2C2=NC(CC(=O)NCc3ccc4c(c3)OCO4)C(=O)N12 (stereo unspecified)
NC(=O)C1CCN(C(=O)c2ccccc2SCC(=O)NCC2CCCCC2)CC1
CCOc1ccccc1CNCCN1CCOCC1
CSc1cccc(NC(=O)C2C3C=CC4(O3)C2C(=O)N(CCN2CCOCC2)C4C(=O)NC2CCCCC2)c1 (stereo unspecified)
COCCSc1nnc(NC(=O)Cc2cccs2)s1
O=C(CN1C(=O)CC(c2ccccc2)Sc2ccccc21)Nc1cccc(Cl)c1 (stereo unspecified)
O=C(NC1CCS(=O)(=O)C1)Oc1ccc(Cl)cc1 (stereo unspecified)
O=S(=O)(c1ccccc1)N1CCN(c2ncccn2)CC1
O=[N+]([O-])c1ccc2nc(-c3ccccc3)[nH]c2c1
COC(=O)c1cc(NCc2ccccc2F)ccc1N1CCOCC1

Potency, inconclusive:
CCOc1ccc(-c2cc(N)n(S(=O)(=O)c3cccc4nsnc34)n2)cc1 39.8 µM [inhibitor, partial curve]
Cc1cc2cc(CNS(=O)(=O)c3ccccc3)ccc2n1C 50.1 µM [inhibitor, partial curve]
CC1CCN(c2nc3ccc(C(=O)N4CCN(Cc5ccccc5)CC4)cc3s2)CC1 39.8 µM [inhibitor, partial curve]
CCOC(=O)c1ccc(NC(=O)c2nc[nH]c2C(=O)NC)cc1 79.4 µM [inhibitor, partial curve]
CCN1C(=O)C(=O)N(CC(=O)N(C)CC(=O)Nc2ccccc2Cl)C1=O 39.8 µM [inhibitor, partial curve]
Cc1ccc2nc3c(cc(S(=O)(=O)c4ccccc4)c(=N)n3C3CCCC3)c(=O)n2c1 15.8 µM [inhibitor, full curve, poor fit]
O=C(CSc1ccsc1[N+](=O)[O-])N1CCN(c2ccccn2)CC1 15.8 µM [inhibitor, full curve]
Cc1ccc(C(=O)NCCn2c(C)cc3ccccc32)cc1C 3.55 µM [inhibitor, partial curve]
Cc1ccsc1C(=O)NN=C1CCCCCC1 7.94 µM [inhibitor, full curve, poor fit]
Cc1ccc(C2=NN3C(C2)c2ccccc2OC32C(=O)Nc3ccccc32)cc1 (stereo unspecified) 89.1 µM [inhibitor, single point]
CC(NC(=O)c1cc([N+](=O)[O-])cc([N+](=O)[O-])c1)C1CC2CCC1C2 (stereo unspecified) 56.2 µM [inhibitor, partial curve]
O=C(COC(=O)c1ccc[nH]c1=O)Nc1ccc(S(=O)(=O)N2CCCC2)cc1 89.1 µM [inhibitor, single point]
COc1cccc(N2CC34C=CC(O3)C(C(=O)O)C4C2=O)c1 (stereo unspecified) 22.4 µM [inhibitor, full curve, poor fit]
Cc1cc(/N=C/C=C2/N(C)c3ccccc3C2(C)C)n(CCC#N)n1 56.2 µM [inhibitor, partial curve]
COc1cccc(/C=N/N2CCN(c3ccncc3S(=O)(=O)N3CCCCC3)CC2)c1 50.1 µM [inhibitor, partial curve]
COc1ccc(C(=O)NC(=S)N(C)C2CCCCC2)cc1Br 28.2 µM [inhibitor, full curve, poor fit]
CCn1c(=O)n(CC)c2cc(N3CCCCC3)c(NC(=O)Nc3ccccc3C(F)(F)F)cc21 28.2 µM [inhibitor, full curve]
CCNC(=O)N1c2ccc(OCC)cc2C(C)=CC1(C)C 56.2 µM [inhibitor, partial curve]
C=CCc1ccccc1OCC(O)CN1CCN(c2ccccc2)CC1 (stereo unspecified) 50.1 µM [inhibitor, partial curve]
CCc1ccc(OCC2Cn3c(nc4c3c(=O)[nH]c(=O)n4C)O2)cc1 (stereo unspecified) 56.2 µM [inhibitor, partial curve, poor fit]
CC(C)N(CCCNC(=O)CC1Oc2ccccc2NC1=O)Cc1ccccc1 (stereo unspecified) 35.5 µM [inhibitor, full curve]
O=C(O)CSc1sc(=S)sc1SCC(=O)O 89.1 µM [inhibitor, single point]
O=[N+]([O-])c1ccc(N2CCN(Cc3ccc4c(c3)OCO4)CC2)nc1 44.7 µM [inhibitor, partial curve]
COc1ccc(-c2c(C)nn3c(N4CCC(C(=O)NCCN(C)C)CC4)cc(C)nc23)cc1OC 112 µM [inhibitor, partial curve, poor fit]
Nc1ccc2c(c1)C(O)c1ccc(Cl)cc1-2 (stereo unspecified) 50.1 µM [inhibitor, partial curve]
Fc1ccccc1-n1cc(-c2ccccc2)[nH]c1=S 22.4 µM [inhibitor, partial curve]
CC1(C(O)(C#CC[N+]2(C)CCCCC2)c2ccccc2)CCCC1 (stereo unspecified) 28.2 µM [inhibitor, single point]
CC[n+]1ccc(C[n+]2ccccc2)c2ccccc21 44.7 µM [inhibitor, single point]
Cc1oc(-c2ccccc2)cc1C(=O)NC(Cc1c[nH]c2ccccc12)C(=O)O (stereo unspecified) 50.1 µM [inhibitor, single point]
COc1ccc2cc(/C=C3\SC(=S)NC3=O)c(N3CCOCC3)nc2c1 50.1 µM [inhibitor, partial curve]
COc1ccc(-c2sc(Nc3ccccc3)n[n+]2-c2ccc(F)cc2)cc1Br 79.4 µM [inhibitor, partial curve]
N#CC1=C(SCC(=O)c2ccccc2)NC2=C(C(=O)CCC2)C1c1ccco1 (stereo unspecified) 70.8 µM [inhibitor, single point]
COc1ccc(OC)c(C2C(C(C)=O)=C(O)C(=O)N2CCN2CCOCC2)c1 (stereo unspecified) 31.6 µM [inhibitor, full curve, poor fit]
O=C(CCN1C(=O)C2CC=C(Cl)CC2C1=O)N1CCCCC1 (stereo unspecified) 22.4 µM [inhibitor, full curve]
COc1ccc(NC(=O)C2CCC2)cc1S(=O)(=O)Nc1cc(C)ccc1Br 44.7 µM [inhibitor, partial curve, poor fit]
Cc1ccc(CN(C)C(=O)c2ccccc2Oc2ccccc2)o1 63.1 µM [inhibitor, partial curve, poor fit]
COc1ccc(C2=NN(CN3C(=O)C(=O)c4ccccc43)C(c3ccc(OC)cc3)C2)cc1 (stereo unspecified) 11.2 µM [inhibitor, full curve]
Cc1ccc(-n2ncc(C(=O)Nc3ccc4c(c3)OCO4)c2C2CCN(C(=O)OC(C)(C)C)CC2)cc1 35.5 µM [inhibitor, partial curve]
COc1ccc(NC(=S)N(CCc2c(C)[nH]c3ccc(C)cc23)Cc2ccco2)cc1 44.7 µM [inhibitor, partial curve]
CCc1c(C2(O)CCCCC2)[nH]c2ccc(C(=O)OC)cc12 56.2 µM [inhibitor, partial curve]
Cc1cc2ccccc2n1CCC(=O)O 12.6 µM [inhibitor, single point]
NC(=S)N/N=C\c1c(OCc2ccccc2Cl)ccc2ccccc12 50.1 µM [inhibitor, partial curve]

Potency, active:
CCN1C(=NCCOC)N[C@@H](CCc2ccccc2)[C@H](C(=O)OC)[C@H]1C 39.8 µM
CC(=O)Nc1nc(N2C(=O)c3ccccc3C2=O)n(-c2ccccc2)n1 79.4 µM
Oc1cccc2c(-c3nn[nH]n3)ccnc12 12.6 µM
CC1(C)C2CCC(C2)C1(C)NC(=O)CN1CCOCC1 (stereo unspecified) 31.6 µM
CC1CCN(C(c2ccc(N(C)C)cc2)c2nnnn2C(C)(C)C)CC1 (stereo unspecified) 56.2 µM
COc1ccc(Cl)cc1NC(=O)c1c(NCc2sccc2C)sc2c1CCCC2 50.1 µM

Activity change, negative = inhibition, inactive:
Cc1nn(Cc2ccccc2Cl)c(Cl)c1/C=C/C(=O)OCC(=O)NC1CCS(=O)(=O)C1 (stereo unspecified) 3.01% [at 11.4 µM]
CCOC(=O)C1C(=O)CC(C)(O)C(C(=O)OCC)C1c1ccco1 (stereo unspecified) -19.1% [at 11.4 µM]
O=C(O)/C=C/C(=O)NNC(=O)c1ccc(Cl)cc1Cl -8.27% [at 11.4 µM]
